Binding signal data for 172 sequences are collected here from article PMC10668032.

The other results are listed elsewhere or left out. At the low end of the ranking the order means little.

The assay has as its target SIX1-Q177R homeodomain (UniProt Q15475). Description: universal protein binding microarray. As to conditions: Universal all-10-mer PBM (8x60K, AMADID 030236), 300 nM GST-tagged protein, Alexa Fluor 488 anti-GST; buffer, salt, pH and temperature not stated; high values mean tight binding; most listed sequences are background and not binding sites; double strand, one strand shown.
As for GCCACTGA, the binding signal was -0.163 E-score.

Regarding CAAACAGA, the binding signal was -0.152 E-score.

As for ATTGAGGA, the binding signal is -0.26 E-score.

On to GGTACCGA, for which the binding signal is -0.156 E-score.

Take TCATGGGA: the binding signal was -0.0306 E-score.

In the case of AACGGGCC, the binding signal is -0.131 E-score.

In the case of CCTTCCCC, the binding signal is 0.0316 E-score.

As to AGAATTCG, the binding signal was -0.114 E-score.

For the sequence GCTCATTA, the binding signal was -0.0591 E-score.

As for ACACCCGG, the binding signal worked out at 0.482 E-score.

Consider ATGTTGTA, for which the binding signal is -0.242 E-score.

Regarding CCAGGGCC, the binding signal is -0.0574 E-score.

For CCAATGTC, the binding signal is -0.123 E-score.

As to CGCGACTC, the binding signal stood at 0.0918 E-score.

For ACCTCAGA, the binding signal came out at 0.128 E-score.

CCGCCCGC: the binding signal was determined as 0.125 E-score.

Turning to ATCGCCCG, the binding signal amounted to 0.0214 E-score.

Take TTTGAAAA: the binding signal is -0.0229 E-score.

Consider CCAAAAAG, for which the binding signal is -0.0374 E-score.

As to CTGACAAA, the binding signal was -0.103 E-score.

Consider CGCATGCG, for which the binding signal is -0.115 E-score.

Take ACATGCTG: the binding signal worked out at 0.0272 E-score.

Consider ACTGACGC, for which the binding signal is -0.0329 E-score.

Consider GTGACACA, for which the binding signal was 0.333 E-score.

With ACGTTGTG, the binding signal is -0.0413 E-score.

ACATGGCG: the binding signal is -0.0948 E-score.

For the sequence AGCGAACC, the binding signal is -0.0683 E-score.

For AGGCTGTC, the binding signal is -0.172 E-score.

CTGACACC: the binding signal came to 0.491 E-score.

For the sequence CGCCAACA, the binding signal came to 0.0308 E-score.

As to CATTATCC, the binding signal amounted to 0.119 E-score.

Turning to ATGCGTCG, the binding signal was -0.186 E-score.

As for TCGTTAAA, the binding signal was -0.0551 E-score.

For the sequence CGGGACCC, the binding signal is 0.13 E-score.

Take CGGACAGA: the binding signal was -0.226 E-score.

With CAATAAGC, the binding signal was -0.0379 E-score.

On to AGGACGCA, for which the binding signal was -0.182 E-score.

With GCTTAACC, the binding signal was determined as 0.0244 E-score.

Turning to GCAAGCAC, the binding signal was -0.0381 E-score.

For the sequence CTGCGAAG, the binding signal is -0.0304 E-score.

Turning to GACATAGC, the binding signal is -0.206 E-score.

ATGCGACG: the binding signal is -0.128 E-score.

For the sequence AGAGTACC, the binding signal is 0.0918 E-score.

Take CGCATGTC: the binding signal was -0.38 E-score.

Consider CGCTTCAG, for which the binding signal is -0.102 E-score.

On to CCCCCAGG, for which the binding signal amounted to 0.213 E-score.

Regarding CGATTACA, the binding signal was 0.143 E-score.

With CAAATTAG, the binding signal is -0.116 E-score.

As for GTACCTAC, the binding signal is 0.152 E-score.

For AAGTTGAT, the binding signal was -0.0316 E-score.

In the case of CCCTTAGA, the binding signal stood at 0.0471 E-score.

AGGTGCCA: the binding signal is 0.138 E-score.

Turning to GTACAGAA, the binding signal was -0.0776 E-score.

CTCAAACA: the binding signal worked out at 0.0362 E-score.

CTAACGAA: the binding signal is -0.287 E-score.

Turning to CGGCGAGC, the binding signal is -0.189 E-score.

For CTAGGCTC, the binding signal was -0.0975 E-score.

As for AATTCAGT, the binding signal was -0.0393 E-score.

On to AGTTCTAT, for which the binding signal is -0.0641 E-score.

As for AGGCGTGA, the binding signal was -0.0447 E-score.

On to CGTTCTGA, for which the binding signal was -0.0864 E-score.

Consider CACTTCGC, for which the binding signal is 0.0794 E-score.

For GCCTTGAA, the binding signal was -0.149 E-score.

In the case of AGTTGCTA, the binding signal is -0.182 E-score.

With CGCGGAAA, the binding signal is -0.0865 E-score.

With AGGGTCTG, the binding signal was -0.0319 E-score.

For the sequence ATTCAGAG, the binding signal worked out at 0.0687 E-score.

GTACTGAA: the binding signal is -0.00226 E-score.

ACCTATGC: the binding signal is -0.143 E-score.

For AGCAGGCC, the binding signal is -0.212 E-score.

Regarding GGCTATTA, the binding signal is -0.123 E-score.

For CCACCCGA, the binding signal is 0.206 E-score.

Regarding CTATAATA, the binding signal amounted to 0.0234 E-score.

In the case of AAGATCTC, the binding signal was -0.117 E-score.

As for GCGGGAAC, the binding signal was -0.103 E-score.

As for GTTAGGTA, the binding signal was found to be 0.115 E-score.

Take CGGAACCA: the binding signal was determined as 0.118 E-score.

For TAGTTAGA, the binding signal was -0.0449 E-score.

In the case of CCTCATCC, the binding signal is -0.104 E-score.

With AACTTCCG, the binding signal is -0.144 E-score.

For GGCCGGGA, the binding signal was -0.0793 E-score.

For GGAAGCCC, the binding signal is -0.143 E-score.

Turning to TCGACCCA, the binding signal is -0.0349 E-score.

AAAGTTTC: the binding signal is -0.14 E-score.

Regarding ACGCTACC, the binding signal was determined as 0.0683 E-score.

For GGAGCACA, the binding signal was -0.00617 E-score.

Turning to CAAAATCG, the binding signal was -0.241 E-score.

For ACAGTCTA, the binding signal was -0.234 E-score.

Consider GCTTTCCC, for which the binding signal is -0.181 E-score.

As for CCAAATGG, the binding signal stood at 0.108 E-score.

Regarding CCCGAGAC, the binding signal amounted to 0.204 E-score.

Consider ATTAGCAC, for which the binding signal came out at 0.105 E-score.

Take CGCCGTAC: the binding signal came out at 0.178 E-score.

With GCAGCCCA, the binding signal was -0.00205 E-score.

On to CCAATTTA, for which the binding signal was determined as 0.238 E-score.

Consider CGCCCGAC, for which the binding signal turned out to be 0.184 E-score.

For AGCTATTC, the binding signal is -0.137 E-score.

As to AAAATCCT, the binding signal is -0.263 E-score.

With AACAGTCG, the binding signal was -0.173 E-score.

Consider CGACGGTC, for which the binding signal is -0.197 E-score.

CAGCAAAG: the binding signal is -0.184 E-score.

On to ACCCTAGA, for which the binding signal was found to be 0.176 E-score.

In the case of GACGAGCA, the binding signal was -0.117 E-score.

Regarding GCAGGGTA, the binding signal was 0.162 E-score.

For ACTAGGAT, the binding signal is -0.0985 E-score.

AGGGGAAA: the binding signal is -0.203 E-score.

GTGCCCAA: the binding signal was 0.0527 E-score.

For ACAATGGG, the binding signal is -0.103 E-score.

TACGACGA: the binding signal was -0.0459 E-score.

As to AGCAGCGC, the binding signal was -0.199 E-score.

In the case of CTGGACGC, the binding signal is 0.00366 E-score.

As to CTGGATGC, the binding signal is -0.21 E-score.

Take CCTCCGGA: the binding signal was 0.104 E-score.

TAAATGCA: the binding signal was -0.131 E-score.

For the sequence CGGCATTA, the binding signal was -0.0854 E-score.

CCTTTCAG: the binding signal was -0.0999 E-score.

Take CGTAATAC: the binding signal turned out to be 0.0298 E-score.

On to CGCCTGGC, for which the binding signal is -0.0417 E-score.

For the sequence TCAACCAA, the binding signal is -0.0352 E-score.

Regarding ACCGAGTG, the binding signal is 0.363 E-score.

As for GGGGTTCA, the binding signal was 0.256 E-score.

For the sequence CACAATCC, the binding signal stood at 0.0268 E-score.

Consider GCTTTTCA, for which the binding signal is -0.105 E-score.

For GTCCGAAC, the binding signal was -0.0307 E-score.

Take ACAATTGT: the binding signal is -0.0258 E-score.

ACGGCCGG: the binding signal was -0.0557 E-score.

Regarding AACGCGCA, the binding signal was found to be 0.0053 E-score.

With ACAGACGG, the binding signal was -0.173 E-score.

With GGACGAGA, the binding signal is -0.231 E-score.

On to AAGGCGGC, for which the binding signal was -0.106 E-score.

In the case of CGTTCCGA, the binding signal is -0.253 E-score.

AACTGGCA: the binding signal was -0.1 E-score.

In the case of AGCCCAGA, the binding signal was -0.0357 E-score.

For ATAACCCC, the binding signal was 0.266 E-score.

Regarding TCAAAACA, the binding signal amounted to 0.0373 E-score.

On to GAGAGAAC, for which the binding signal amounted to 0.00213 E-score.

As for TACCCGAA, the binding signal is -0.0222 E-score.

Take TGATATCA: the binding signal was -0.0584 E-score.

In the case of GCGACCCC, the binding signal worked out at 0.212 E-score.

As for AGGGGATA, the binding signal was determined as 0.124 E-score.

Take AGGAGTCA: the binding signal was found to be 0.225 E-score.

For ATTTCATC, the binding signal amounted to 0.017 E-score.

As to GGCTGCAC, the binding signal is -0.0522 E-score.

Take AGCTCCCT: the binding signal is 0.0251 E-score.

For the sequence ATTTACTC, the binding signal was found to be 0.115 E-score.

Turning to AAGAGTAA, the binding signal amounted to 0.154 E-score.

In the case of TCGCATCA, the binding signal was -0.144 E-score.

Consider GAGTGGCC, for which the binding signal was -0.117 E-score.

Regarding CTTCCCTA, the binding signal was -0.119 E-score.

CCAAGATA: the binding signal worked out at 0.144 E-score.

In the case of CAATCTTA, the binding signal is -0.145 E-score.

With CCAAAGGC, the binding signal amounted to 0.0858 E-score.

For CCCGGAAG, the binding signal turned out to be 0.102 E-score.

For ACGGACGG, the binding signal is -0.037 E-score.

As for GCCTAAGC, the binding signal is -0.136 E-score.

In the case of CTCAAAAA, the binding signal was -0.149 E-score.

In the case of CACTTGCC, the binding signal is 0.227 E-score.

As for ACGCAAGT, the binding signal was found to be 0.0826 E-score.

For CCTTCCGC, the binding signal amounted to 0.0209 E-score.

Consider CGTAGTGC, for which the binding signal amounted to 0.0725 E-score.

CACTCCCA: the binding signal turned out to be 0.273 E-score.

Take AACATACT: the binding signal was found to be 0.0504 E-score.

Regarding ATCAGCCA, the binding signal is -0.118 E-score.

On to AAAATCAA, for which the binding signal is -0.184 E-score.

With CAGCAGCA, the binding signal is -0.0383 E-score.

With AGGCGCTA, the binding signal is -0.131 E-score.

Regarding GCATTTTA, the binding signal was -0.207 E-score.

For the sequence CATATGTA, the binding signal is -0.144 E-score.

Turning to GTATCGAA, the binding signal was 0.199 E-score.

For the sequence ACCGCAAG, the binding signal was found to be 0.0288 E-score.

Turning to CCTAGCAC, the binding signal was found to be 0.125 E-score.

On to CATCCGAA, for which the binding signal is -0.0759 E-score.
